PubChem BioAssay (NCI)
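Cells were grown in 96-well plates and exposed to each compound for 48 hours at five concentrations; endpoints were interpolated linearly between bracketing concentrations, or set to the highest concentration if not reached. The concentration for 50% growth inhibition is given as GI50. TGI: concentration producing complete growth inhibition.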

System: NCI-H322M lung
Assay: NCI tumour cell line growth inhibition, 48 h

**Q.** For `C#CCN(C)CCCOc1ccc(NCc2ccc(/C=C/C(=O)NO)cc2)cc1Cl`, which GI50 is on record?
**A.** The GI50 was 0.74 µM.

**Q.** And the TGI?
**A.** The TGI was 7.38 µM.
